From a compilation of properties of binary mixtures (doi:10.1016/j.jct.2011.12.003)
The densities may have been worked out from excess volumes.

Experiment: xn = mol fraction of the nth substance listed
Details: 101 kPa

CCCCCCCC[n+]1ccc2ccccc2c1.O=S(=O)([N-]S(=O)(=O)C(F)(F)F)C(F)(F)F + OCCc1ccccc1
mass density [kg/m3]
Details | x2 = 0 | x2 = 0.0851 | x2 = 0.1985 | x2 = 0.3101 | x2 = 0.3748 | x2 = 0.4969 | x2 = 0.5766 | x2 = 0.695 | x2 = 0.8076 | x2 = 0.8956
298.15 K | 1330.8 | 1322 | 1308.7 | 1293 | 1282.5 | 1258.7 | – | 1203 | 1155.4 | –
308.15 K | 1322 | 1313.3 | 1300.2 | 1284.7 | 1274.2 | 1250.4 | 1231.2 | – | 1147.4 | 1096.3
318.15 K | 1313.6 | 1305 | – | 1276.3 | – | 1242.1 | – | 1186.7 | 1139.4 | 1088.5
328.15 K | 1305.2 | – | 1283.5 | 1268 | – | 1233.7 | – | – | 1131.4 | 1080.6
338.15 K | 1296.8 | – | 1275.2 | 1259.7 | – | 1225.4 | 1206.5 | – | 1123.4 | 1072.7

CCCCCCO + CCCCCCCC[n+]1ccc2ccccc2c1.O=S(=O)([N-]S(=O)(=O)C(F)(F)F)C(F)(F)F
x1 = 1
Details | mass density [kg/m3]
298.15 K | 815.2
308.15 K | 808
318.15 K | 800.6
338.15 K | 785.5

CCCCO + CCCCCCCC[n+]1ccc2ccccc2c1.O=S(=O)([N-]S(=O)(=O)C(F)(F)F)C(F)(F)F
x1 = 1
Details | mass density [kg/m3]
298.15 K | 805.8
308.15 K | 798.1
318.15 K | 790.2
328.15 K | 782.2
338.15 K | 773.9

OCCc1ccccc1 + CCCCCCCC[n+]1ccc2ccccc2c1.O=S(=O)([N-]S(=O)(=O)C(F)(F)F)C(F)(F)F
x1 = 1
Details | mass density [kg/m3]
298.15 K | 1016.2
308.15 K | 1008.6
318.15 K | 1001
328.15 K | 993.3
338.15 K | 985.5

CCCCCCCC[n+]1ccc2ccccc2c1.O=S(=O)([N-]S(=O)(=O)C(F)(F)F)C(F)(F)F + CCCCO
mass density [kg/m3]
Details | 298.15 K | 308.15 K | 318.15 K | 328.15 K | 338.15 K
x2 = 0 | 1330.8 | 1322 | 1313.6 | 1305.2 | 1296.8
x2 = 0.048 | 1324.3 | – | 1307.2 | 1298.8 | 1290.4
x2 = 0.0865 | 1318.8 | 1310.1 | 1301.7 | 1293.3 | 1284.9
x2 = 0.1708 | 1305.6 | 1297 | 1288.6 | – | 1271.6
x2 = 0.3134 | – | – | 1261.9 | 1253.4 | –
x2 = 0.4036 | 1258 | 1249.4 | 1240.8 | 1232.2 | 1223.6
x2 = 0.5032 | – | 1220.7 | 1212.1 | 1203.4 | 1194.7
x2 = 0.6067 | 1191.1 | 1182.4 | 1173.8 | 1165.1 | 1156.3
x2 = 0.6915 | 1150 | – | 1132.7 | 1124.1 | –
x2 = 0.7937 | 1082.2 | 1073.6 | – | 1056.4 | –
x2 = 0.9314 | 931.8 | 923.6 | 915.4 | 907 | 898.5

CCCCCCCC[n+]1ccc2ccccc2c1.O=S(=O)([N-]S(=O)(=O)C(F)(F)F)C(F)(F)F + CCCCCCO
mass density [kg/m3]
Details | x2 = 0 | x2 = 0.0854 | x2 = 0.1805 | x2 = 0.2857 | x2 = 0.3673 | x2 = 0.4981 | x2 = 0.5825 | x2 = 0.6854 | x2 = 0.7913 | x2 = 0.9063
298.15 K | 1330.8 | 1315.4 | 1296.1 | 1271.3 | 1249 | 1205.5 | 1170.7 | 1118.4 | 1047.8 | 941.2
308.15 K | 1322 | 1306.7 | 1287.6 | 1262.9 | 1240.5 | 1197.1 | 1162.3 | 1110 | 1039.6 | –
318.15 K | 1313.6 | 1298.4 | 1279.2 | – | 1232.1 | 1188.6 | 1153.9 | 1101.6 | 1031.4 | 925.7
328.15 K | 1305.2 | 1290 | 1270.8 | 1246 | 1223.6 | 1180.2 | 1145.5 | 1093.2 | 1023.2 | 917.8
338.15 K | 1296.9 | 1281.6 | – | 1237.6 | 1215.2 | 1171.8 | 1137.1 | – | 1014.9 | –
